Target: T1, soluble biotinylated BCMA (recombinant BCMA-biotin) (UniProt Q02223 1-54, biotin)
T1 sequence (looked up): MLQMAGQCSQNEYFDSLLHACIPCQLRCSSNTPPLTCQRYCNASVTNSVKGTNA
Assay: SPR

B1: monovalent biNTe (heterodimeric, monovalent scFv-Fc human IgG1 bispecific iNKT engager, Fc-silent L234A/L235A (LALA), 'key-in-hole') (bispecific antibody)
chain 1: DIVLTQSPPSLAMSLGKRATISCRASESVTILGSHLIHWYQQKPGQPPTLLIQLASNVQTGVPARFSGSGSRTDFTLTIDPVEEDDVAVYYCLQSRTIPRTFGGGTKLEIKGGGGSGGGGSGGGGSQIQLVQSGPELKKPGETVKISCKASGYTFTDYSINWVKRAPGKGLKWMGWINTETREPAYAYDFRGRFAFSLETSASTAYLQINNLKYEDTATYFCALDYSYAMDYWGQGTSVTVSSGGGGSGGGGSGGGGS[… human IgG1 Fc with changes …]
chain 2: DIKMTQSPSSMYASLGERVTITCKASQDINSYLSWFQQKAGKSPKTLIYRANRLVDGVPSRFSGSGSGQDYSLTISSLEYEDMGIYYCLQYDEFPFTFGGGTRLEIKGGGGSGGGGSGGGGSQVQLQQSGPEVVRPGVSVKISCKGSGYRFTDSAMHWVKQSHAKSLEWIGVISSYNGNTNYNQKFKGKATMTVDKSSSTAYMELARMTSEDSAIYYCARSRDAMDYWGQGTSVTVSSGGGGSGGGGSGGGGS[… human IgG1 Fc with L234A L235A S354C Y407T (EU numbers) …]
Kd: 34.5 nM

From doi:10.1101/2025.10.23.683869 (bioRxiv, 2025)
